Laboratory results from PubChem BioAssay AID1468 (National Center for Advancing Translational Sciences (NCATS), 2008).
Where “and” joins values, the source holds several entries; their conditions need not be identical. Equal entries are not always repeated. Among all 280,000 compounds or so, about 1,100 (0.39%) were called active. The shares of active, inactive and inconclusive entries below differ from those in the screen. Calls come from the whole dose curve; as a rule, active = well fitted inhibition curve with a large enough effect; inconclusive = small, poorly fitted or top-dose-only effect, or effect the other way; inactive = flat fitted curve, though single readings scatter. Potencies of inconclusive entries are doubtful fits and often do not repeat.

These compounds were tested against Microtubule-associated protein tau (Homo sapiens) (UniProt P10636) (assay: qHTS for Inhibitors of Tau Fibril Formation, Fluorescence Polarization). Conditions: K18 P301L tau heparin fibrillization, Alexa594 FP, 6 h; series mostly up to 57.7 µM; activity, negative = inhibition: at the top concentration.
Method in brief: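 Steps: dispense K18 P301L tau (15 uM plus 0.24 uM Alexa 594 tracer, final) in pH 7 sodium acetate; add compound; add heparin (20 uM final); incubate 6 hr, 37 C; add ThT (30 uM final); after 1 hr ambient, read FP.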
% is set by controls: 0 for no effect and ±100 for the full control effect; potency is the fitted concentration of half-maximal effect; tags give direction and shape of the fitted curve.
Note: nearly all actives have a fitted effect of over 55% in size.

Chain of UniProt P10636 (P10636 whole entry, looked up): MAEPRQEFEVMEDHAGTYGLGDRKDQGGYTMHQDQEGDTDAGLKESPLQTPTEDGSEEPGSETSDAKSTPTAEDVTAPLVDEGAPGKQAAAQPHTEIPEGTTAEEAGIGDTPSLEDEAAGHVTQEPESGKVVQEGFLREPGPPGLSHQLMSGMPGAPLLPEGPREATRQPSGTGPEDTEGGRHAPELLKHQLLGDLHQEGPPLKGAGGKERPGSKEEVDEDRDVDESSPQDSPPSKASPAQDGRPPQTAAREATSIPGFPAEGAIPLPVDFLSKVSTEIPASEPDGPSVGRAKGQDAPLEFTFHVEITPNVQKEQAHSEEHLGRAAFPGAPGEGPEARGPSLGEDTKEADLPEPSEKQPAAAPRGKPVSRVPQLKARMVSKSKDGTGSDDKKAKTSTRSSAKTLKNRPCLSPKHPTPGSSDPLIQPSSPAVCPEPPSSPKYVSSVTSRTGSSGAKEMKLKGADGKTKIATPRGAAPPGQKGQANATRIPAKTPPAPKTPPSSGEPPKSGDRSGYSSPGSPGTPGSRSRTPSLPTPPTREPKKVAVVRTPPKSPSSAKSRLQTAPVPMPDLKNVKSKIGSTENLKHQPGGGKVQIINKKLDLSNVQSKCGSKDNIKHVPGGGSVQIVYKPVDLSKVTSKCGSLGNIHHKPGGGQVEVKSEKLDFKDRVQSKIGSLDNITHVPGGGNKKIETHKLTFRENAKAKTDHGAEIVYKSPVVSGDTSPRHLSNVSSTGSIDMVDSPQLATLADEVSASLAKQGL

`CC(=O)N1CCc2cc(Br)cc(S(=O)(=O)N3CCC(C(=O)Nc4ccc(C(C)C)cc4)CC3)c21` was tested. Which Potency did it give?
The Potency was inconclusive: 35.5 µM [inhibitor, single point].

`Nc1c(N2CCOCC2)cc(Cl)c2nonc12` was tested. Which Potency did it give?
The Potency was inconclusive: 20 µM [inhibitor, partial curve].

Which Potency does the source give for `CN(Cc1ccccc1)S(=O)(=O)c1ccc(NC(=O)c2cc(=O)c3ccccc3o2)cc1` here?
The Potency was inconclusive: 15.8 µM [inhibitor, partial curve].

For `CCc1cccc(C)c1NC(=O)CN1C(=O)C2(SCC(=O)N2c2cccc(F)c2)c2ccccc21` (stereo not drawn), which Potency is on record?
Its Potency is inconclusive: 10 µM [inhibitor, partial curve, poor fit].

With `CC(=O)Nc1sc2c(c1CN1CCN(c3ccc(F)cc3)CC1)CCCC2` as the compound, how does the “activity, negative = inhibition” value read?
The value was inactive: 7.61%.

`CCOc1ccc2c(c1)c(=O)c(S(=O)(=O)c1ccc(F)cc1)cn2CC(=O)Nc1ccccc1C` was tested. Which Potency did it give?
The Potency was inconclusive: 1.58 µM [inhibitor, full curve].

For `COc1ccc(CCNC(=O)c2cccc(Nc3nc4ccccc4nc3-n3nc(C)cc3C)c2)cc1OC`, which “activity, negative = inhibition” value is on record?
Its value is inactive: -11.7%.

For `Cc1ccc(NC(=O)c2oc3ccc4c(c3c2C)C(=O)CC(C)(C)O4)c(C)c1`, which “activity, negative = inhibition” value is on record?
Its value is inactive: -13.3%.

With `O=C1CC(c2ccccc2)=Nc2ccccc2N1Cc1ccccc1` as the compound, how does the Potency read?
The Potency was inconclusive: 10 µM [inhibitor, single point].

For `COc1ccc([N+](=O)[O-])cc1NC(=O)CSc1ccc2ccccc2c1`, which Potency is on record?
Its Potency is inconclusive: 12.6 µM [inhibitor, single point].

How did the Potency turn out when `c1ccc(-c2nc(NCc3ccco3)c3ccccc3n2)cc1` was run?
Its Potency is inconclusive: 31.6 µM [inhibitor, single point].

Which Potency does the source give for `Cc1ccc2nc(SCC(=O)Nc3ccc4sc(C)nc4c3)c(C#N)cc2c1` here?
The Potency was inconclusive: 28.2 µM [inhibitor, partial curve].

How did the “activity, negative = inhibition” value turn out when `C=CCN(CC=C)c1ccc(N2C(=O)C3CCCCC3C2=O)cc1[N+](=O)[O-]` (stereo not drawn) was run?
The value was inactive: -1.6%.

How did the Potency turn out when `CC(=O)Nc1ccc(NC(=S)NC(=O)c2cc3ccccc3o2)cc1` was run?
The Potency was inconclusive: 39.8 µM [inhibitor, single point].

Which Potency does the source give for `O=C1CCSC2(C(=O)N(Cc3ccc(F)cc3)c3ccccc32)N1c1ccc(Cl)cc1` (stereo not drawn) here?
The Potency was inconclusive: 35.5 µM [inhibitor, partial curve].

For `C/C(CC(=O)NCc1ccco1)=N\NC(=O)Cc1ccc(-c2ccccc2)cc1`, which “activity, negative = inhibition” value is on record?
The value was inactive: 5.99%.

With `CN1CC=C2C(C#N)=C(N)C(C#N)(C#N)C(c3cccc(Cl)c3Cl)C2C1` (stereo not drawn) as the compound, how does the Potency read?
Its Potency is inconclusive: 11.2 µM [inhibitor, partial curve].

For `O=C(/C=C/c1ccccc1[N+](=O)[O-])NCCc1ccc(F)cc1`, which “activity, negative = inhibition” value is on record?
Its value is inactive: 6.07%.

How did the “activity, negative = inhibition” value turn out when `CC(C)NC(=S)Nc1c(N)[nH]c(=O)[nH]c1=O` was run?
The value was inactive: 1.66%.

How did the Potency turn out when `O=C(Nc1ccc(F)cc1)c1cc(S(=O)(=O)Nc2ccc(F)cc2)cs1` was run?
The Potency was inconclusive: 25.1 µM [inhibitor, partial curve].

For `Cc1cc(-c2nnc(SCC(=O)NC3CCCC3)o2)no1`, which Potency is on record?
Its Potency is inconclusive: 11.2 µM [inhibitor, single point].

For `Cc1nn(Cc2ccccc2Cl)c(C)c1NC(=O)Cn1nc([N+](=O)[O-])c(Cl)c1C`, which Potency is on record?
The Potency was inconclusive: 3.16 µM [inhibitor, single point].

How did the “activity, negative = inhibition” value turn out when `C/C(=N\NC(=S)Nc1ccccc1C)C1Cc2ccccc2C(=O)O1` (stereo not drawn) was run?
Its value is inactive: -3.71%.

Which Potency does the source give for `NCCS(=O)O` here?
The Potency was inconclusive: 1.12 µM [activator, single point].

How did the Potency turn out when `COc1ccc(Cn2nnnc2C(c2cc3cc(C)ccc3[nH]c2=O)N2CCN(C)CC2)cc1` (stereo not drawn) was run?
The Potency was inconclusive: 1.58 µM [inhibitor, single point].

`COc1cc(NC(=O)C(Cc2ccccc2)NS(=O)(=O)c2cccs2)cc(OC)c1` (stereo not drawn) was tested. Which Potency did it give?
The Potency was inconclusive: 2 µM [inhibitor, partial curve].

For `O=C(Cn1c(=O)nc(-c2ccccc2)c2ccccc21)N1CCN(c2ccc(F)cc2)CC1`, which “activity, negative = inhibition” value is on record?
Its value is inactive: -2.59%.

How did the “activity, negative = inhibition” value turn out when `C(=N\Nc1nc2ccccc2s1)/c1ccc2c(c1)OCO2` was run?
Its value is inactive: 13.9%.

With `C=C1C(=O)C=C2CN(C(=O)c3ccccc3)[C@@](Cc3ccc(F)cc3)(C(=O)OC)[C@@H]12` as the compound, how does the Potency read?
The Potency was inconclusive: 17.8 µM [inhibitor, partial curve] and inconclusive: 44.7 µM [inhibitor, single point].

How did the Potency turn out when `Cc1ccc(NC(=O)C2Cc3ccccc3C(=O)O2)cc1` (stereo not drawn) was run?
Its Potency is inconclusive: 11.2 µM [inhibitor, partial curve, poor fit].

For `Cc1c(NC2=CC(=O)CC(C)(C)C2)c(=O)n(-c2ccccc2)n1C`, which Potency is on record?
Its Potency is inconclusive: 44.7 µM [inhibitor, single point].

`O=C(C1=C[C@H](c2ccc3c(c2)OCO3)C[C@H](OCc2ccc(CO)cc2)O1)N1CCN(Cc2ccc3c(c2)OCO3)CC1` was tested. Which Potency did it give?
The Potency was inconclusive: 3.55 µM [activator, single point].

`CCOc1nc(NCc2ccco2)nc(Nc2ccc(OC)cc2)n1` was tested. Which Potency did it give?
Its Potency is inconclusive: 8.91 µM [inhibitor, single point].

For `CCC(O)c1cc2c(cc1NC(=O)c1ccc(C)cc1)OCCO2` (stereo not drawn), which Potency is on record?
The Potency was inconclusive: 0.398 µM [inhibitor, partial curve, poor fit].

For `COC(=O)c1ccc(N2CN=C(c3ccc(C)cc3)NC2=S)cc1`, which Potency is on record?
The Potency was inconclusive: 31.6 µM [inhibitor, single point].

`C/C(CC(C)(C)C1CCCCC1)=N\NC(N)=S` was tested. Which “activity, negative = inhibition” value did it give?
The value was inactive: -2.52%.

For `COc1ccc(C(=O)Cn2nnc(-c3ccccc3NC(=O)C3CCCCC3)n2)cc1`, which Potency is on record?
Its Potency is inconclusive: 15.8 µM [inhibitor, partial curve].

`Cc1ccc(-c2noc(C3CCCN(S(=O)(=O)c4ccc(S(=O)(=O)N(C)C)cc4)C3)n2)o1` (stereo not drawn) was tested. Which Potency did it give?
Its Potency is inconclusive: 25.1 µM [inhibitor, partial curve].

With `Cc1ccc(NC(=O)C(OC(=O)c2ccc(O)cc2)c2ccccc2)cc1Cl` (stereo not drawn) as the compound, how does the Potency read?
Its Potency is active: 28.2 µM.

`CC(=O)c1ccc(-n2c(CCC(=O)O)ccc2-c2cccs2)cc1` was tested. Which Potency did it give?
The Potency was “inactive”.

With `CCOc1ccc(CNC(=O)Cn2nc(C)c3c(C)n(-c4ccc(C)cc4)nc3c2=O)cc1` as the compound, how does the “activity, negative = inhibition” value read?
Its value is inactive: -3.09%.

`CCC(C)C(NC(=O)[C@@H](NC(=O)c1ccccc1F)C(C)C)C(=O)OC` (stereo partly drawn) was tested. Which “activity, negative = inhibition” value did it give?
Its value is inactive: -0.0263%.

Which “activity, negative = inhibition” value does the source give for `Cc1ccc(/C=C/C(=O)Nc2ccccc2C(N)=O)o1` here?
The value was inactive: -0.968%.

How did the “activity, negative = inhibition” value turn out when `O=S(=O)(Nc1ccccc1O)c1ccc(-c2ccccc2)cc1` was run?
The value was inactive: 0.773%.

How did the “activity, negative = inhibition” value turn out when `CC(C)CCNC(=O)C(c1ccco1)N(CC1CCCO1)C(=O)Cn1nnc2ccccc21` (stereo not drawn) was run?
The value was inactive: 7.76%.

Which “activity, negative = inhibition” value does the source give for `Cc1ccc(CCNC(=O)c2c(C)oc3ncn(CC(C)C)c(=O)c23)cc1` here?
The value was inactive: -3.73%.

How did the Potency turn out when `O=C(NCc1cccc(F)c1)c1ccc(NC(=O)c2nsc3ccccc23)cc1` was run?
Its Potency is inconclusive: 11.2 µM [inhibitor, partial curve].

For `COc1cc(C(=O)N2CCN(C(=O)c3ccco3)CC2)cc(OC)c1OC`, which “activity, negative = inhibition” value is on record?
The value was inactive: -5.44%.

With `CCN(CC)c1ccc(/C=C/C(=O)C2C(=O)C=C(C)OC2=O)cc1` (stereo not drawn) as the compound, how does the Potency read?
Its Potency is inconclusive: 1.41 µM [activator, full curve].

`O=c1c2cn[nH]c2nc(SCc2c(F)cccc2F)n1-c1ccc(Cl)cc1` was tested. Which Potency did it give?
Its Potency is inconclusive: 39.8 µM [inhibitor, single point] and inconclusive: 22.4 µM [inhibitor, single point].

Which “activity, negative = inhibition” value does the source give for `CCOC(=O)C1CCN(c2ncnc3c2cnn3-c2ccc(Cl)cc2)CC1` here?
The value was inactive: -2.28%.

With `CN1\C(=C/C=C/C=C/C=[N+](C)C)C(C)(C)c2ccccc21` as the compound, how does the Potency read?
The Potency was inconclusive: 3.98 µM [activator, full curve].

How did the Potency turn out when `O=C(Nc1nc2ccc(SC(F)F)cc2s1)c1ccc(NS(=O)(=O)c2ccc(F)c(F)c2)cc1` was run?
The Potency was active: 12.6 µM.

For `O=C(NCc1ccco1)c1ccc2c(c1)N(Cc1ccc(F)cc1)C(=O)c1ccccc1S2(=O)=O`, which Potency is on record?
The Potency was inconclusive: 17.8 µM [inhibitor, single point].

For `COc1cc(/C=N/NC(=O)C(=O)/C=C2\NC3(CCCC3)Cc3ccccc32)ccc1O`, which Potency is on record?
The Potency was inconclusive: 0.141 µM [activator, full curve, poor fit].

`O=C1N/C(=N\N=C\c2ccco2)SC1Cc1ccccc1[N+](=O)[O-]` (stereo not drawn) was tested. Which Potency did it give?
Its Potency is inconclusive: 15.8 µM [inhibitor, partial curve].

How did the Potency turn out when `O=C(N/N=C/c1ccccc1F)NC1CCCCC1` was run?
Its Potency is inconclusive: 39.8 µM [inhibitor, single point].

With `O=C(Nc1ccc(N2CCCC2)cc1)C(Cl)c1ccccc1` (stereo not drawn) as the compound, how does the Potency read?
Its Potency is active: 31.6 µM.

With `C=CCNCCOCCOc1ccc(Cl)cc1C(C)(C)C` as the compound, how does the “activity, negative = inhibition” value read?
The value was inactive: -5.23%.

How did the Potency turn out when `CCOC(=O)C(Cc1c[nH]c2ccccc12)NC(=O)COc1ccc(CC)cc1` (stereo not drawn) was run?
The Potency was inconclusive: 17.8 µM [activator, single point].

Which Potency does the source give for `O=S(=O)(NN1CCOCC1)c1ccc(Cl)s1` here?
The Potency was inconclusive: 28.2 µM [inhibitor, partial curve].

Which Potency does the source give for `CCc1ccccc1N1CSC2=C(C#N)C(c3cc(OC)c(OC)cc3OC)CC(=O)N2C1` (stereo not drawn) here?
Its Potency is inconclusive: 35.5 µM [inhibitor, partial curve].

For `COc1ccc(/C=N/OCC(=O)N=Nc2c(O)[nH]c3ccc(Br)cc23)cc1OC`, which Potency is on record?
The Potency was inconclusive: 0.794 µM [inhibitor, single point].

Which Potency does the source give for `Cc1c(C)c2c(c(C)c1O)CCC(C)(COc1ccc(Cc3sc(=O)[nH]c3O)cc1)O2` (stereo not drawn) here?
Its Potency is inconclusive: 0.501 µM [activator, full curve].

How did the Potency turn out when `COC(=O)c1ccsc1NC(=O)c1ccc2c(c1)OCCO2` was run?
The Potency was inconclusive: 44.7 µM [inhibitor, single point].

How did the “activity, negative = inhibition” value turn out when `CC(=O)NN1C(=O)/C(=C\c2ccc(O)cc2)SC1=S` was run?
The value was inactive: -2.93%.

For `COC(=O)c1c(-n2c(C)cc(C=O)c2C)sc2c1CCCC2`, which Potency is on record?
The Potency was inconclusive: 35.5 µM [inhibitor, single point].

`C=CCN1C(=O)/C(=C/c2ccc(OC)cc2)S/C1=N/c1nccs1` was tested. Which “activity, negative = inhibition” value did it give?
The value was inactive: -7.92%.
